# Results published in the supplement of paper PMC12217912.
# Some of the results follow. Sequences were assembled here from the parent chain. Inactive controls read about 0.05.
# B1: TEV protease; numbered along this chain (parent)
# chain: MGESLFKGPRDYNPISSSICHLTNESDGHTTSLYGIGFGPFIITNKHLFRRNNGTLVVQSLHGVFKVKDTTTLQQHLVDGRDMIIIRMPKDFPPFPQKLKFREPQREERICLVTTNFQTKSMSSMVSDTSCTFPSGDGIFWKHWIQTKDGQCGSPLVSTRDGFIVGIHSASNFTNTNNYFTSVPKNFMELLTNQEAQQWVSGWRLNADSVLWGGHKVFMVKPEEPFQPVKEATQL
# Variants of: B1
# Experiment: raw area under fraction-flipped curve 0-4 h after induction (AUC4h, not background-subtracted), DNA-recorder readout of cleavage of the substrate (dimensionless); higher = more cleavage of the substrate by the protease variant
# Conditions: temperature: 34 °C; time window: 0-4 h after rhamnose induction
# 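Also: Bxb1 expression induced with 0.2% (w/v) L-rhamnose at OD600 near 0.5, cultures sampled hourly, flipped fraction per protease–substrate barcode pair counted by paired-end Illumina sequencing.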
Variant,area with substrate ENLYFQH,area with substrate ENLYFQI,area with substrate ENLYFQL,area with substrate ENLYFQR,area with substrate ENLYFQS,area with substrate ENLYFQW,area with substrate ENLYFQY,area with substrate ENLYFQK,area with substrate ENLYFQM,area with substrate ENLYFQN
H215F,0.0592,0.0378,0.0608,0.0628,0.0848,0.0707,0.0603,,,
F163D,,,0.0369,,0.0932,,,0.0594,0.0603,
F163P,,,,,0.0555,,,,0.0534,0.0634
F163S,,,,,0.105,,,,,
E189Y,,,0.0304,0.0296,0.112,0.0618,0.0553,,,
T119W,,,,,0.0976,,,,,
T119R,,0.0353,,,0.0972,,,,,
T119C,,,,,0.0957,,,0.0583,,
S182M,,0.0254,,,0.0716,,,,,
I164V,,,,0.0613,0.109,0.0871,,,,0.0836
C131P,0.0796,,0.066,,0.111,0.0606,0.0534,,,0.0975
C131H,,,0.0199,,0.158,,,,,
C131Q,,,,,0.107,,,,,
C131W,,,0.0411,,0.0905,0.06,,0.0558,,0.0697
C131E,,,,,0.115,,,,,0.0912
C131F,,0.0434,,,0.139,,,,,
S171I,,0.0486,,,0.0668,,,,0.0619,
N193M,,,,,0.0695,,,,,
N193C,0.0612,,,,0.0994,0.0855,,0.0637,,
G162V,,0.061,,,0.0714,,0.0632,,,0.0335
T181E,,0.0518,0.0694,0.0612,0.0622,,,0.0694,,0.0498
T181C,,,,,0.117,,0.0929,,,
Q97R,,,0.0605,,0.0898,,,,,
Q97G,,,,,0.109,,,,,0.0704
Q97Y,,0.0488,,,0.0991,0.0384,,,,0.0759
Q97T,,,,,0.106,,,,,

Variant,area with substrate ENLYFQH,area with substrate ENLYFQI,area with substrate ENLYFQL,area with substrate ENLYFQR,area with substrate ENLYFQS,area with substrate ENLYFQW,area with substrate ENLYFQY,area with substrate ENLYFQK,area with substrate ENLYFQM,area with substrate ENLYFQN
N175S,,,0.0545,,0.0793,,,0.0666,,0.0605
T174I,,,,,0.0808,,,,,
S209W,,,0.0753,,0.109,0.0565,0.119,,,
S209Y,0.0826,,,,0.125,,0.0996,,,0.0775
N172W,,,,,0.0793,,,,,
N172A,,,,0.0588,0.0656,,,0.0648,,0.0697
N172M,,,,,0.0525,,,,,
N172L,,,,,0.0536,,,,,
P89C,0.0714,,0.0516,0.0579,0.0876,,,,,
W212A,0.0771,,0.0571,0.0354,0.0871,,,,,
H76G,0.0903,,0.0556,,0.11,,,,0.101,0.0752
G214F,,,0.066,,0.0694,,,,0.0719,0.0484
R102N,,,,,0.0623,,,,,
P228Y,,,0.0596,0.0692,0.0984,0.0593,0.0668,,,0.0438
P228S,,,,,0.107,0.0658,0.054,0.0644,0.127,
D137H,,,0.0768,0.0658,0.0976,,,0.0651,0.0916,0.0744
Q118L,,0.057,,,0.106,,,0.0868,,
F140S,,,,0.0695,0.0612,,,,,
L211T,0.0768,,,,0.119,,,0.0823,,
L211I,,,0.0458,,0.0964,,,0.0543,,
L211D,,,,,0.124,,,,,
W199S,0.0695,0.0546,,0.0527,0.0632,,,0.0536,0.0574,
W199Y,0.0621,0.0589,,0.0517,0.0786,0.0672,,,,
W199Q,0.0518,,,,0.0672,,,0.0794,,
M1I,,,,0.0666,0.0684,,,,,
L190F,,,,,0.0854,0.0544,,,,

# Same assay, conditions: temperature: 34 °C; time window: 0-4 h after rhamnose induction
Variant,area with substrate ENLYFQP,area with substrate ENLYFQQ,area with substrate ENLYFQV,area with substrate ENLYFQT,area with substrate ENLYFQG
E189Y,0.0684,0.117,,,
T119C,,,0.0839,,
C131P,,,,0.0687,
C131E,,0.056,0.052,,
T181E,0.0648,0.0657,,0.07,
Q97T,,,,0.0666,
N175S,,,0.0308,,
T174I,0.0644,,,,
S209W,,,,,0.117
S209Y,,,,0.0748,
W212A,,,,0.0589,
G214F,,,0.0392,0.0632,
P228Y,0.0641,,,0.0752,
P228S,,,0.0571,,0.116
F140S,,,0.025,,
L211T,,,,0.0531,
L211I,,,,0.0667,
W199S,,,,0.0622,
W199Y,,,0.0632,,
W199Q,0.0618,,,,
